Laboratory results as given in the RNAGym collection of RNA variant scans (doi:10.7554/elife.90254).
The source gives no read counts; variants with many changes may rest on few reads.

B1: LINE1-mini (parent)
chain: GGCAGAGCUCAACACAGCGUGGCAAAGUGGCUGUGGCUAGACUGCC

Variants of: B1
Test: self-cleavage, relative activity (ratio to wild type); higher = more cleavage; in vitro, sequencing; the parent is a self-cleaving ribozyme

Variant	self-cleavage
G7U C8A C10A G17A G21A A25C G29A	0.06
C3A C31A C45U	0.04
G5U C13A G27C G30U	0.14
C8A C31G U32A	0.15
C3U A4U G5U A14U C15G	0.09
A14U G19U G35U	0.03
C10G A11U A25U	0.01
G2U C37U C42G	0.01
G19A G22A G27U G33A	0.33
A6G U9C A26G G36A	0.01
C3U C10A G29U C31A	0.04
A6G C8A C13A C15G G27C	0.07
G2A C3A C37G U43A	0.33
G21C A24U A25U U43C	0.08
G19U A24G C31U U34A	0.01
G2C C3A A14U G40U	0.04
A4G A24U G30A G36U	0.05
A4G C8U G44C	0.07
A14U G29C C37A	0.01
C13G G21A U28A G30C U32C G35U	0.02
G2C U9C U20G G22U C42U	0.07
A6U A14U G30U G40U	0.1
C10G A24U G35U	0
A4C G7C G17A C42A	0.17

Variant	self-cleavage
G2C A4U A16C A25C A26G C37A	0.01
G2C A11G A14G G33C	0
A6G U34A A39G	0.04
G7C A16G U32C G35U	0.06
C31G G33A G35C C45U	0
C3U C10G A41C	0.03
C13A A26U U28G C31G	0.03
C23U G27A U38A	0.64
C13U C15U G44C	0.23
G33U G35U C46U	0.01
G21U A25U C46A	0.65
A4C G35U C42A	0.02
G21A A26C U32A	0.09
A11C G22A A25G G44U	0.01
G17C G22U A39U	1.5
A6U U20G C31A	0.03
C13A G21A A39U C45G	0.07
G5C C10A C37G	0.02
G7C C8U C31A	0.16
G17C A25U G29U G36C C37A U38C C46A	0.06
U9G G33A A41G G44A	0.01
G2C U28G C42U	0.02
U9G U34C C46G	0.04
C13A G29A C31U G36A	0.03

Variant	self-cleavage
A6U U28G G35U	0.02
G1U U20C C23U G40U	0.07
C8U C18U G19A	1.63
C3A G36A G40C	0.78
G33U U34C G36C	0.02
C15A G17U G35U	0.02
A12U A41U C45A	0.13
G17U G21A A24G U28G U38G	0.01
C8A A12G U38A	0.31
U9C A12C G17C A39U	0
G1U A11C A25U G40U	0.02
G7C G27C U28C	0.05
A11G C13A A16C	0.05
C13U A24U G29A	0.14
C3U C15A C23A G27A G40U G44C	0.02
C18G G27U U32A U38G	0.03
A11C C23U A26G	0.03
G1U A6G G21A A24U U28G G29A U38C	0.1
G5A A11G C15A	0.06
G2C A4C G17C	0
G2U G7C U28A A39U	0.01
G2A U20G G22U A26C	0.17
G7U G27U G33C G40A	0.34
G2C A26C U34A G36U	0.03

Variant	self-cleavage
C15U U32A U43A	0.11
C3G G5U G22A	0.11
C8A U20A A26C U38A	0.06
U9G U32G G40U	0.24
G33C G40A C46G	0.02
C8A U9C G44A	0.04
G1A A11C U38C	0.08
G7A C15A A16U G17U U32C C37U U43A	0.16
G1C G7A G27U	0.03
G1U U38A C46G	0.12
A6C G40A G44U	0.04
G1A G2C G19A C23U U43C	0.17
C8A G29U U38C C42U G44A	0.44
G2A A6C G29A	0.36
A6U G33U G35A	0.02
A16C A39U C45A	0.05
G5A G17A G30U C31U	0.12
C3A A4U A11G A14G C15A G22U G27C	0.01
A24G G35U C42U	0.06
A6G A16G G17A G33A	0
C8G G27C C31A	0.02
A14C C18G G19A U20G G22A G27A	0.04
G5U A16G A26G	0.01
C3G C23A U38G C42U	0.02

Variant	self-cleavage
U20A G21C G36U	0.05
G2C G19U C46U	0.02
C3U G19A G21U G36A	0.05
G5A G19U C23G G27U	0.03
A14U G22A G35A G36A	0.01
A6U G22U G35A	0.05
G21C A24U G40U C45A	0.04
C10U A16U G30U A41C	0.02
G29C C31U U38A A41U	0.06
C3G G19U G33A C37A	0.2
A12C C13U A39U G40U	0.02
C8G G21C A24G	0.02
A6G G7U C13G G19C	0.03
A6U C23G C46A	0.3
C10U G22A A26U C37U G44U	0.02
A11U U38C G40A C42G	0.01
G2U G29C U43A G44C	0.01
G5C C8A A11C	0
G27A G29C C37A C45A	0
A25C A26G A39C	0.08
C13A G36U C45G	0.08
A4G G27C G33A U34C	0.05
G22C C37G A39G	0.01
C13A G19A G33A C37A	0.04

Variant	self-cleavage
A14C A16G U32G A39C	0.16
A11C G21C U34G	0
C10G C18U G44A	0.06
G2A U20A G33C U34G	0.06
C18U G29C A39C C45U	0.07
G1A A11C U20G G33C	0.02
C10G A25U A39G	0.02
G1C A12C A25G U34C G35U C37G	0
A6C G29C C37U	0
C10A A16U C23G G40U C42A	0.01
G2C A6C C15A C37G G40A	0.01
A4G G7C G19U A25G C37U	0.08
G2C A16C A24C U43C	0.05
G2C C3G C8U U9A C31U C42A	0.13
G17C C42A G44U	0.04
A16C C31U C37G	0.03
A4U A16C G30U	0.1
G36A A41C G44A	0.18
A11G G19C G21A	0.02
C8A U9G C18G	0.06
A14U C15A G17A G22C	0.07
G1U A11C G22A	0.07
G1U G2C G17U A24U G44U	0.01
A11U C31U G35A	0.02

Variant	self-cleavage
A16G U20C G21U	0.46
C3A C8G C13U G36U A39G	0.23
A6U C13U G19U G27A G33A	0.07
C3A G5U A6U U34A A39U	0.09
G1U C3U A4C C15U A24U G40C A41U	0.41
C10U A12U G19C G36U A41U	0.01
G5C A11C U20C	0.01
A11U C15A C42A	0.01
A4G C13A G19A A25G	0.02
A11C C18G A41U	0.03
G2U C18A U38G A39G C42A	0.02
G5C A6G C23G C37A A39C U43A	0.45
G5A G19A A26C A39U	0.02
C3G C8A C31G G33A	0.13
U9A A11C G22U G27U	0.01
A4C G5C G19A C37U	0.13
G2A C13G C42U	0.13
C18U C31U G35A G44A	0.02
U9A G33A G36U C46A	0.04
C3A C8A G21C C31A G40U	0.12
C10G A11G C31U	0.01
U9C G22A C31A C46A	0.03
G2C C8U C23A A24G G35A A39G	0.02
